This is one part of the list. Viral Rep nickase domains cut single-stranded DNA in vitro for 1 h at 37 °C with 3 µM enzyme; only the middle of the 90-letter strands is printed. Numbers give uncut DNA relative to the enzyme-free pool, as log2; the lower, the more was cut; hits are not called. Shares of all reads are compared; uncut strands gain when others are lost, and binding without cutting may add a little.
Key:
Test in all cases: uncleaved DNA left, log2 of reads against the no-enzyme library (log2 ratio); higher = less cleavage (more negative = more Rep cleavage of the k-mer); sequences stand for … in CTCGTCCG…ACCGGAGA
[1] = test system: T1, Rep nickase domain of Muscovy duck circovirus
T1 sequence (Rep 1-111, printed without the tag): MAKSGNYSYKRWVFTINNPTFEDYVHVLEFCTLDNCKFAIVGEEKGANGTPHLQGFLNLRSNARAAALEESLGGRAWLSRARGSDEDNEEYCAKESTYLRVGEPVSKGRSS
Procedure: (§1)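 A pool of 90-nt single-stranded DNAs with seven random bases just before the constant AC of the nick site (name = the seven bases) was cut by 3 µM recombinant His6-SUMO-tagged Rep nickase domain (300 nM DNA, 50 mM HEPES pH 8.0, 50 mM NaCl, 1 mM MnCl2, 1 h, 37 °C, three replicates). Uncut DNA was amplified and sequenced.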

[2] = test system: T2, Rep nickase domain of banana bunchy top virus
T2 sequence (Rep 1-94, printed without the tag): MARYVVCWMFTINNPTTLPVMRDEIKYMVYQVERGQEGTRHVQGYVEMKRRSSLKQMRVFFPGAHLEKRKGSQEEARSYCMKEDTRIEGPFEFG
Procedure: as §1

[3] = test system: T3, Rep nickase domain of cabbage leaf curl virus
T3 sequence (Rep 1-116, printed without the tag): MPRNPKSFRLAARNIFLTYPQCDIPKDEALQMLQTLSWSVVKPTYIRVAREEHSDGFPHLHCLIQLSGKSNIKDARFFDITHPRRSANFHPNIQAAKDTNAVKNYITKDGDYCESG
Procedure: as §1

[4] = test system: T4, Rep nickase domain of chickpea chlorotic dwarf virus
T4 sequence (Rep 1-124, printed without the tag): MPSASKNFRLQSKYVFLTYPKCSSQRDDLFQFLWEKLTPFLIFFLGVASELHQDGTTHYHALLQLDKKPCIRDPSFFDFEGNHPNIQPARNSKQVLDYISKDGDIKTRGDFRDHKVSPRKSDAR
Procedure: as §1

[5] = test system: T5, Rep nickase domain of faba bean necrotic yellows virus
T5 sequence (Rep 1-98, printed without the tag): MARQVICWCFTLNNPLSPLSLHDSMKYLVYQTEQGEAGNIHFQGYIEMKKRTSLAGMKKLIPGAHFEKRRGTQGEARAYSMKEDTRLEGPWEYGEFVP
Procedure: as §1

[6] = test system: T6, Rep nickase domain of maize striate mosaic virus
T6 sequence (Rep 1-117, printed without the tag): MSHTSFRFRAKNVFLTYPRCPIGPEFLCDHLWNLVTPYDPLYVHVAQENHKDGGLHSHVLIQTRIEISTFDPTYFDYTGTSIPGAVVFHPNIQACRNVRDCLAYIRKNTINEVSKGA
Procedure: as §1

[7] = test system: T7, Rep nickase domain of porcine circovirus 2
T7 sequence (Rep 2-116, printed without the tag): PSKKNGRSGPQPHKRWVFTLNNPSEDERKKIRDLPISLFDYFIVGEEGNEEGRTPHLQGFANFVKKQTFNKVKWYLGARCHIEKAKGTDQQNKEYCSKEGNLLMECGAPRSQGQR
Procedure: as §1

[8] = test system: T8, Rep nickase domain of tomato yellow leaf curl virus
T8 sequence (Rep 1-136, printed without the tag): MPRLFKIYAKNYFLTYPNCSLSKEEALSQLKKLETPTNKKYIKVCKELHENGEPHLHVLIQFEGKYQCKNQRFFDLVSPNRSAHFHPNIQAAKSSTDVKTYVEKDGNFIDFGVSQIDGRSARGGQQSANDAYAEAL
Procedure: as §1

[9] = test system: T9, Rep nickase domain of wheat dwarf virus
T9 sequence (Rep 1-137, printed without the tag): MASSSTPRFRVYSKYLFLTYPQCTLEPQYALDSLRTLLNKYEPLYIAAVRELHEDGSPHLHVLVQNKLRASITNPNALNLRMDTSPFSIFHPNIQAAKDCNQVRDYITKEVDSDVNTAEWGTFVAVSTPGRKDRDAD
Procedure: as §1

Row | Sequence | uncleaved DNA left (log2) [1] | uncleaved DNA left (log2) [2] | uncleaved DNA left (log2) [3] | uncleaved DNA left (log2) [4] | uncleaved DNA left (log2) [5] | uncleaved DNA left (log2) [6] | uncleaved DNA left (log2) [7] | uncleaved DNA left (log2) [8] | uncleaved DNA left (log2) [9]
1 | TATGTTA | -0.0788 | -0.00144 | -0.0813 | -1.65 | 0.0501 | -0.325 | -0.278 | 0.123 | -0.218
2 | CTTTGTT | -3.1 | -1.44 | -0.829 | -2.97 | -0.192 | -1.38 | -3.24 | 0.0641 | -0.661
3 | CTGACAA | 0.0371 | -0.0663 | 0.0419 | 0.251 | 0.167 | -0.00805 | 0.0151 | -0.0455 | 0.0476
4 | ACCGTAC | 0.0653 | -0.0832 | -0.33 | -0.479 | -0.146 | -0.775 | 0.0512 | -0.0977 | -0.197
5 | ACGTAGG | 0.0401 | 0.0442 | -0.338 | -0.237 | -0.0184 | -1.02 | 0.0257 | -0.0988 | -0.0779
6 | CGTAACA | 0.0143 | -0.00374 | -0.393 | -1.56 | -0.0693 | -0.416 | -0.113 | -0.137 | 0.000898
7 | GGGCCGA | 0.0563 | 0.25 | 0.851 | 1.92 | 0.1 | 2.21 | 0.299 | 0.0625 | 0.231
8 | GTGATTG | 0.0351 | 0.00614 | -0.068 | 0.699 | -0.0736 | 1.42 | 0.123 | 0.0213 | 0.113
9 | GCGGGGC | 0.0061 | 0.0314 | 0.847 | 1.24 | 0.193 | 1.93 | 0.337 | 0.166 | 0.141
10 | GTGGCTG | -0.0325 | 0.00328 | 0.218 | 0.821 | -0.117 | 1.67 | 0.114 | -0.0224 | 0.0312
11 | TCACGTA | 0.0325 | -0.0284 | 0.131 | -0.742 | 0.0734 | -0.721 | 0.0321 | 0.0255 | -0.0234
12 | AAGGTGA | 0.0835 | 0.081 | 0.224 | 0.807 | 0.0756 | 0.77 | 0.246 | 0.0495 | 0.0396
13 | CCCCCTA | -0.123 | -0.208 | -0.0593 | -1.28 | -0.137 | -0.604 | -0.44 | -0.185 | -0.0284
14 | CCCAGCA | -0.0554 | 0.098 | -0.335 | -0.883 | -0.0654 | -0.908 | -0.146 | 0.152 | -0.113
15 | CGAAAAT | -0.0484 | -0.142 | -0.125 | -0.528 | -0.114 | -0.571 | -0.279 | -0.0633 | -0.0654

Reference: the supplement of paper PMC7826260
